Reference: the RNAGym collection of RNA variant scans (doi:10.1093/nar/gkz1192)
Read counts are not given, so values of variants with three or more changes are uncertain.

B1: CPEB3 Ribozyme (parent)
chain: UAACAGGGGGCCACAGCAGAAGCGUUCACGUCGCAGCCCCUGUCAGAUUCUGGUGAAUCUGCGAAUUCUGCUGUAUAUCUC

Variants of: B1
Assay: self-cleavage, relative activity (ratio to wild type); higher = more cleavage; in vitro, sequencing
Summary of the method: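 CPEB3 self-cleaving ribozyme mutant libraries were made by rounds of error-prone PCR, barcoded, and transcribed in vitro with T7 RNA polymerase for 5 hours at 37°C. Cleavage occurred during transcription and a 15 min DNase I step before EDTA stop. RNAs were reverse transcribed with template switching and Illumina-sequenced, with DNA sequencing mapping barcodes to variants. Relative activity is the variant's cleaved/total read fraction divided by wild type's (minimum 5 reads), averaged across three batches.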
For UAACAGGGGGCCACAGCGGAAGCGCUCACGUCGCGGCCCCUGUCAGAUUCCGGUGAAUUUGCGAAUUCUGCUGUAUGACUC [A18G U25C A35G U51C C59U A77G U78A], the self-cleavage was 0.07.
With UAACAGGGGGCCACAGCGGAAGCGCUCACGUCGCAGCCCCUGUCCGAUUCUGGUGAAUCUGCGAAUUCUGCUGUAUAUCUC [A18G U25C A45C] the self-cleavage was 0.39.
For UAACAGGGGGCCACAGCGGAAGCGCUCACGUCGCAGCCCCUGUCAGAUUCUGGUGUAUCCGCGAAUUCUGACGUAUAUCUC [A18G U25C A56U U60C C71A U72C], the self-cleavage was 0.03.
In the case of UAACAGGGGGCCACAGCGGAAGCGCUCACGUCGCAGCCCCUGUCAGAUUCUGGUGAAUCUGCGUAUUCUGCUGUAUAUCUC [A18G U25C A64U], the self-cleavage is reported as 0.17.
Work on UAACAGGGGGCCACAGCGGAAGCGCUCACGUCGCAGCCCCUGUCAGAUUCUGGUGAAUCUGCGAGUUCUGCUGUAUAUCUC [A18G U25C A65G] yielded a self-cleavage of 0.25.
With UAACAGGGGGCCACAGCGGAAGCGCUCACGUUGCAGCCCCUGUCAGAUCCUGGUGAAUCUGCGAAUUCUGCUGUAUACCUC [A18G U25C C32U U49C U78C] the self-cleavage was 0.07.
In the case of UAACAGGGGGCCACAGCGGAAGCGCUCACGUCGCAGCUCCUGCCAGGUUCCGGUGAAUCUGCGAAUUCUGCUGUAUAUCUC [A18G U25C C38U U43C A47G U51C], the self-cleavage is reported as 0.
UAACAGGGGGCCACAGCGGAAGCGCUCACGUCGCAGCUCCUGUCAGAUUCAGGUGAAUCUGCGAAUUCUGCUGUAUAUCUC [A18G U25C C38U U51A] showed a self-cleavage of 0.18.
In the case of UAACAGGGGGCCACAGCGGAAGCGCUCACGUCGCAGCCACUGUCAGAUUCUGGUGAAUCUGCGAAUUCUGCUGUAUAUCUC [A18G U25C C39A], the self-cleavage is reported as 0.23.
For UAACAGGGGGCCACAGCGGAAGCGCUCACGUCGCAGCCCUUGUCAGAUUCUGGUGAAUCUGCGAAUUCUGCUGUAUAUCUC [A18G U25C C40U], the self-cleavage was 0.05.
UAACAGGGGGCCACAGCGGAAGCGCUCACGUCGCAGCCCCUGUCAGAUUCUGGUGAAUCUGCGAAUUCUGGUGUACAUCUC [A18G U25C C71G U76C] gave a self-cleavage of 0.02.
Variant UAACAGGGGGCCACAGCGGAAGCGCCCACGUCGCAGCCCCUGUCAGAUUCUGGUGAAUCUGCGAAUUCUGCUGUAUAUCUC [A18G U25C U26C] has a self-cleavage of 0.31.
Work on UAACAGGGGGCCACAGCGGAAGCGCCCACGUCGCAGCCCCUGUCAGAUUCUGGUGAAUCUGCGAAUUCUGCCGUAUAUCUC [A18G U25C U26C U72C] yielded a self-cleavage of 0.15.
UAACAGGGGGCCACAGCGGAAGCGCUCACGACGCAGCCCCUGCCAGAUUCUGGUGAAUCUGCGAAUUCUGCUGUAUAUCUC [A18G U25C U31A U43C] gave a self-cleavage of 0.08.
With UAACAGGGGGCCACAGCGGAAGCGCUCACGCCGCAGCCCCUGUCAGAUUCUGGUGAAUCUGCGAAUUCUGCUGUAUAUCUC [A18G U25C U31C] the self-cleavage was 0.21.
UAACAGGGGGCCACAGCGGAAGCGCUCACGCCGCAGCCCCCGUCAGAUUCUGGUGAAUCCGCGAAUUCUGCUGUAUAACUC [A18G U25C U31C U41C U60C U78A] showed a self-cleavage of 0.25.
UAACAGGGGGCCACAGCGGAAGCGCUCACGCCGCAGCCCCUGUCAGAUCCUGGUGAAUCUGCGAACUCGGCUGUAUAUCUC [A18G U25C U31C U49C U66C U69G] showed a self-cleavage of 0.
Work on UAACAGGGGGCCACAGCGGAAGCGCUCACGUCGCAGCCCCAGUCGGAUUCUGGUGAAUCUGCGAAUACUGCUGUUUAUCUC [A18G U25C U41A A45G U67A A75U] yielded a self-cleavage of 0.04.
UAACAGGGGGCCACAGCGGAAGCGCUCACGUCGCAGCCCCAGUCAGAUUCGUGUGGUUCUGCGAAUUCUGCUGUAUAUCUC [A18G U25C U41A U51G G52U A56G A57U] gave a self-cleavage of 0.2.
With UAACAGGGGGCCACAGCGGAAGCGCUCACGUCGCAGCCCCUGCCAGAUUCUGGUGAAUCUGCGAAUUCUGCUGUAUAUCUC [A18G U25C U43C] the self-cleavage was 0.28.
Variant UAACAGGGGGCCACAGCGGAAGCGCUCACGUCGCAGCCCCUGCCAGAUUCUGGUGAACCUGCGAAUUCUGCUGUAUAUCUC [A18G U25C U43C U58C] has a self-cleavage of 0.06.
In the case of UAACAGGGGGCCACAGCGGAAGCGCUCACGUCGCAGCCCCUGCCAGAUUCUGGUGAAUCAGCGAAUUCCGCUGCAUAUCUC [A18G U25C U43C U60A U69C U74C], the self-cleavage is reported as 0.07.
UAACAGGGGGCCACAGCGGAAGCGCUCACGUCGCAGCCCCUGCCAGAUUCUGGUGAAUCUGCGAAUUCGGCUGUAUAUCUC [A18G U25C U43C U69G] gave a self-cleavage of 0.15.
Variant UAACAGGGGGCCACAGCGGAAGCGCUCACGUCGCAGCCCCUGUCAGACUCUGGUGAAUCUGCGAAUUCUGCUGUAAAUCUC [A18G U25C U48C U76A] has a self-cleavage of 0.08.
UAACAGGGGGCCACAGCGGAAGCGCUCACGUCGCAGCCCCUGUCAGAUUCUGGGGAAUCUGCGAAUUCUGCUGUAUAUCUC [A18G U25C U54G] gave a self-cleavage of 0.26.
Work on UAACAGGGGGCCACAGCGGAAGCGCUCACGUCGCAGCCCCUGUCAGAUUCUGGUGAAUCUGCGAAUCCUGCUGUAUAUCCC [A18G U25C U67C U80C] yielded a self-cleavage of 0.28.
UAACAGGGGGCCACAGCGGAAGCGGUCACGUCGCAGCCCCUGUCAGAUUCUGGCGAAUCUGCGAAUUCUGCUGUAUAUCCC [A18G U25G U54C U80C] showed a self-cleavage of 0.12.
For UAACAGGGGGCCACAGCGGAAGCGUACGCGUCGCAGCCCCUGACAGAUUCUGGUGAAUCCGCGAAUUCUGCUGUAUAUCUC [A18G U26A A28G U43A U60C], the self-cleavage was 0.11.
UAACAGGGGGCCACAGCGGAAGCGUACACGUCGCAGCCCCUGUCAGAUUCUGGUGAAUCUGCGAAUUCUGCUGUGUUUCUC [A18G U26A A75G A77U] showed a self-cleavage of 0.17.
For UAACAGGGGGCCACAGCGGAAGCGUACACGUCGCAGCCCCUGACAGAUUCUGGUGAAUCUGCGAAUUCUGCUGUAUAUCUC [A18G U26A U43A], the self-cleavage was 0.19.
Variant UAACAGGGGGCCACAGCGGAAGCGUACACGUCGCAGCCCCUGACAGAUUCUGGUGGAUCUGCGAAUUCUGCUGUAUAUAUC [A18G U26A U43A A56G C79A] has a self-cleavage of 0.24.
With UAACAGGGGGCCACAGCGGAAGCGUACACGUCGCAGCCCCUGUCAGACUCUGGUGAAUCUGCGAAUCCUGCUGUAUAUCUC [A18G U26A U48C U67C] the self-cleavage was 0.14.
With UAACAGGGGGCCACAGCGGAAGCGUACACGUCGCAGCCCCUGUCAGAUUCAGGUGAGUCUGCGAAUUCUGCUGUAUAUCUC [A18G U26A U51A A57G] the self-cleavage was 0.19.
Variant UAACAGGGGGCCACAGCGGAAGCGUACACGUCGCAGCCCCUGUCAGAUUCAGGUGAAUCUGUGGAUUCUGCUGUAUAUCUC [A18G U26A U51A C62U A64G] has a self-cleavage of 0.22.
